From US11178870B2 (priority 2017, dated 2021)

Legend:
Type in all cases: in vivo
Plasmopara viticola = assay: Test Example G: Downy mildew on vine; conditions: for control value, Test G (downy mildew on vine): 250 ppm sprayed (2.5 ml/pot) before inoculation, assessed 7 to 10 days after inoculation; for Test G control value: Downy mildew on vine, 250 ppm sprayed, 7 to 10 days after inoculation
Botrytis cinerea = assay: Test Example B: Gray mold on tomato; conditions: for control value, Test B (gray mold on tomato): Table 7, Test B; for Test B control value: Gray mold on tomato
Puccinia recondita = assay: Test Example E: Brown rust on wheat; conditions: for control value, Test E (brown rust on wheat): Table 7, Test E; for Test E control value: Brown rust on wheat
[1] = system: Blumeria graminis f. sp. hordei; assay: Test Example D: Powdery mildew on barley; conditions: for control value, Test D (powdery mildew on barley): Table 7, Test D; for Test D control value: Powdery mildew on barley
Alternaia brassicicola = assay: Test Example C: Alternaria sooty spot on cabbage; conditions: for control value, Test C (Alternaria sooty spot on cabbage): Table 7, Test C; for Test C control value: Alternaria sooty spot on cabbage
[2] = class of control value, Table 7

SMILES	control value, Test G (downy mildew on vine) (Plasmopara viticola)	control value, Test B (gray mold on tomato) (Botrytis cinerea)	control value, Test E (brown rust on wheat) (Puccinia recondita)	control value, Test D (powdery mildew on barley) [1]	control value, Test C (Alternaria sooty spot on cabbage) (Alternaia brassicicola)	Test G control value (Plasmopara viticola; 2.5 ml/pot)	Test B control value (Botrytis cinerea)	Test E control value (Puccinia recondita)	Test D control value [1]	Test C control value (Alternaia brassicicola)	further results
CCn1c(-c2ccc(F)cc2Cl)c(-n2ncc(C)c2Cl)cc(Br)c1=O [Compound 337]	H (H shows the control value more than 50%)	H (H shows the control value more than 50%)	H (H shows the control value more than 50%)	H (H shows the control value more than 50%)	H (H shows the control value more than 50%)						
CCn1c(-c2ccc(OC)cc2Br)c(-n2cc(F)cn2)ccc1=O [Compound 354]	H (H shows the control value more than 50%)	H (H shows the control value more than 50%)	H (H shows the control value more than 50%)	H (H shows the control value more than 50%)	H (H shows the control value more than 50%)						
CCn1c(-c2c(F)cc(F)cc2F)c(-n2cc(Cl)c(C)n2)cc(Br)c1=O [Compound 144]						L (L shows the control value of 50% or less)	L (L shows the control value of 50% or less)	L (L shows the control value of 50% or less)	L (L shows the control value of 50% or less)	H (H shows the control value more than 50%)	
O=c1c(Br)cc(-n2cc(F)cn2)c(-c2c(F)cc(F)cc2F)n1CC(F)F [Compound 283]	L (L shows the control value of 50% or less)	H (H shows the control value more than 50%)	H (H shows the control value more than 50%)	H (H shows the control value more than 50%)	H (H shows the control value more than 50%)						
CCn1c(-c2ccc(F)cc2C)c(-n2cc(Cl)cn2)cc(Cl)c1=O [Compound 170]						L (L shows the control value of 50% or less)	L (L shows the control value of 50% or less)	L (L shows the control value of 50% or less)	L (L shows the control value of 50% or less)	H (H shows the control value more than 50%)	
CCn1c(-c2c(F)cc(F)cc2F)c(-n2cc(C)cn2)cc(C)c1=O [Compound 86]						L (L shows the control value of 50% or less)	H (H shows the control value more than 50%)	H (H shows the control value more than 50%)	H (H shows the control value more than 50%)	H (H shows the control value more than 50%)	
CCn1c(-c2ccccc2Br)c(-n2cc(F)cn2)cc(Br)c1=O [Compound 358]	L (L shows the control value of 50% or less)	H (H shows the control value more than 50%)	H (H shows the control value more than 50%)	L (L shows the control value of 50% or less)	H (H shows the control value more than 50%)						
Cn1c(-c2ccc(F)cc2Cl)c(-n2cc(F)cn2)cc(Cl)c1=O [Compound 482]											Test G control value (downy mildew on vine) (Plasmopara viticola; 250 ppm spray, 2.5 ml/pot, investigated 7 to 10 days after inoculation): L (L shows the control value of 50% or less); Test B control value (gray mold on tomato) (Botrytis cinerea; [2]): H (H shows the control value more than 50%); Test E control value (brown rust on wheat) (Puccinia recondita; [2]): H (H shows the control value more than 50%); Test D control value (powdery mildew on barley) [1, 2]: H (H shows the control value more than 50%); Test C control value (Alternaria sooty spot on cabbage) (Alternaia brassicicola; [2]): H (H shows the control value more than 50%)
